{"source": "paper PMC4336329", "about": "(PLoS ONE, 2015)", "note": "Among all 310,000 compounds or so, about 14,000 (4.5%) showed an effect of 50% or more. Effects have a minus sign here. This is one part of the list.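 Further: peak tail current of the secondary pulse compared with the same well before compound.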"}
{"target": "human ether-à-go-go-related gene (hERG) potassium channel (human, UniProt Q12809)", "sequence (Q12809 whole entry, looked up)": "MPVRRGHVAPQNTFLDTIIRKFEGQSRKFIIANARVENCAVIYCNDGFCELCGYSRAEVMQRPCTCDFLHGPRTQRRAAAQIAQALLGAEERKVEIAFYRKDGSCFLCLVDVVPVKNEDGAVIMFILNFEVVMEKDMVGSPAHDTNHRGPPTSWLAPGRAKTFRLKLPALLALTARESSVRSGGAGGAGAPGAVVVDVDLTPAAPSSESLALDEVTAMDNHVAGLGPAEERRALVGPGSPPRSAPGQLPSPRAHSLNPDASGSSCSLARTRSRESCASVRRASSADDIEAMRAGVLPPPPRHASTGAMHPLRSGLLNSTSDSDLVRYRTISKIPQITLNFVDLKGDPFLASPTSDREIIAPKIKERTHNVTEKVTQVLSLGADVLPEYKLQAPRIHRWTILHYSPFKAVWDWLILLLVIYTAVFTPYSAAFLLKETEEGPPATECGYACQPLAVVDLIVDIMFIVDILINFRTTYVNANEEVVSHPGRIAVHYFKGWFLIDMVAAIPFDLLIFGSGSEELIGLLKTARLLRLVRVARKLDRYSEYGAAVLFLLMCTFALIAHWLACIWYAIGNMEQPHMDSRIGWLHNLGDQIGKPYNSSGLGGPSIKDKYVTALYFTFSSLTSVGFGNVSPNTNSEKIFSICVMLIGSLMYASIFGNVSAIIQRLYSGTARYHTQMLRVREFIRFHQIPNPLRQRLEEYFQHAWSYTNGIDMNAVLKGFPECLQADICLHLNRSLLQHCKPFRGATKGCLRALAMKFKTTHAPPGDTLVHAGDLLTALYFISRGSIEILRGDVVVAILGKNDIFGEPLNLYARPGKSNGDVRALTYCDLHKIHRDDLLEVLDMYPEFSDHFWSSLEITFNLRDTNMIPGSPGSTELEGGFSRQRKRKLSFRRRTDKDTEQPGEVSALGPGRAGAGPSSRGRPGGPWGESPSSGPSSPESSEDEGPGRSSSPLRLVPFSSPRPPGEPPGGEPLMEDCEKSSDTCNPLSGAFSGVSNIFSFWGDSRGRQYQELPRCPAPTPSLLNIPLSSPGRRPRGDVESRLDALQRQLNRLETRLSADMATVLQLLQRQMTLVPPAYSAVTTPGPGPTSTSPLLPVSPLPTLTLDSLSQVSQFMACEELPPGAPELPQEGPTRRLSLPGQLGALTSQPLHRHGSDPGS", "test": "primary screen, population patch clamp on CHO cells stably expressing hERG", "units": {"hERG current change (%, negative = inhibition) at 10uM": "%"}}
{"smiles": "O=C(Nc1ccc2nc(-c3ccco3)c(-c3ccco3)nc2c1)N1CCCCCC1", "hERG current change (%, negative = inhibition) at 10uM": 11.8}
{"smiles": "O=S(=O)(CCc1nc2ccccc2[nH]1)c1ccc(Cl)cc1", "hERG current change (%, negative = inhibition) at 10uM": -6.64}
{"smiles": "COc1ccc(CNC(=O)/C=C/c2cc([N+](=O)[O-])ccc2OC(F)F)cc1", "hERG current change (%, negative = inhibition) at 10uM": 15.3}
{"smiles": "CS(=O)(=O)Nc1ccc(-c2cn3c(n2)SCC3)cc1", "hERG current change (%, negative = inhibition) at 10uM": 3.65}
{"smiles": "CCCOc1ccc(C(C)=O)cc1CC(C(N)=O)C(N)=O", "hERG current change (%, negative = inhibition) at 10uM": 14.9}
{"smiles": "O=C(O)c1ccc(Cl)c2c1C1C=CCC1C(c1ccccn1)N2", "note": "(centres unmarked)", "hERG current change (%, negative = inhibition) at 10uM": 7.76}
{"smiles": "COc1ccccc1CNC(=O)c1cccc(NC(=O)c2ccccc2)c1", "hERG current change (%, negative = inhibition) at 10uM": -10.9}
{"smiles": "COc1ccc(-c2nnc(SCC(=O)c3cc(C)n(Cc4cccs4)c3C)o2)cc1", "hERG current change (%, negative = inhibition) at 10uM": 5.36}
{"smiles": "CCOc1ccc(NS(=O)(=O)c2ccc(OCC(=O)N3CCCC3)cc2)cc1", "hERG current change (%, negative = inhibition) at 10uM": -4.33}
{"smiles": "Cc1ccc(NC(=O)N2CCN(C)CC2)cc1NC(=O)N1CCN(C)CC1", "hERG current change (%, negative = inhibition) at 10uM": 3.03}
{"smiles": "Cc1cc(C(C)(C)C)cc(C)c1COC(=O)CN1C(=O)NC2(CCCC2)C1=O", "hERG current change (%, negative = inhibition) at 10uM": 12.2}
{"smiles": "Cc1ccccc1S(=O)(=O)NNC(=O)C(=O)NNc1ccccn1", "hERG current change (%, negative = inhibition) at 10uM": 9.71}
{"smiles": "Cc1cccc(NC(=O)CC2C(=O)NC3CCCCC3N2C(=O)c2ccccc2Cl)c1", "note": "(centres unmarked)", "hERG current change (%, negative = inhibition) at 10uM": 8.54}
{"smiles": "COC(=O)c1nnn(-c2nc(N(C)C)nc(N(C)C)n2)c1C", "hERG current change (%, negative = inhibition) at 10uM": -7.53}
{"smiles": "O=C1CSC(c2cccc([N+](=O)[O-])c2)N1C1CC2CCC1C2", "note": "(centres unmarked)", "hERG current change (%, negative = inhibition) at 10uM": -15.7}
{"smiles": "CCOc1ccccc1NC(=O)COC(=O)CCOc1cc(C)ccc1C", "hERG current change (%, negative = inhibition) at 10uM": 14.8}
{"smiles": "NC(=S)NC1CC2CC1C1C=CCC21", "note": "(centres unmarked)", "hERG current change (%, negative = inhibition) at 10uM": 6.66}
{"smiles": "CCN1CCN(c2cc(C)c3cc(NC(=O)c4cc(OC)cc(OC)c4)ccc3n2)CC1", "hERG current change (%, negative = inhibition) at 10uM": -35.6}
{"smiles": "Cc1cccc(OCC2=N/C(=C\\N(C)C)C(=O)O2)c1", "hERG current change (%, negative = inhibition) at 10uM": 4.15}
{"smiles": "Cc1cccc(NC(=O)CCc2ccc(S(=O)(=O)NC3CCCCC3)cc2)c1", "hERG current change (%, negative = inhibition) at 10uM": 14.4}
{"smiles": "CCOCCCNC(=O)CC1Oc2ccc(C)cc2NC1=O", "note": "(centres unmarked)", "hERG current change (%, negative = inhibition) at 10uM": -2.59}
{"smiles": "CCc1ccc(CN2CCC(C(=O)Nc3ccc(-n4nc(C)cc4C)cc3)CC2)o1", "hERG current change (%, negative = inhibition) at 10uM": -46.1}
{"smiles": "Cc1cccc(C)c1-n1c(C)cc(/C=C2\\NC(=O)NC2=O)c1C", "hERG current change (%, negative = inhibition) at 10uM": -21.7}
{"smiles": "COc1cc(/C=C/C(=O)N2CCOCC2)ccc1OCc1ccccc1", "hERG current change (%, negative = inhibition) at 10uM": -8.45}
{"smiles": "CSc1ccc(NC(=O)N2CCC(C(=O)c3ccc(F)cc3)CC2)cc1", "hERG current change (%, negative = inhibition) at 10uM": -40.9}
{"smiles": "Cc1cc(=O)[nH]c(N/N=C/c2c(C)nn(-c3ccccc3)c2Cl)n1", "hERG current change (%, negative = inhibition) at 10uM": -2.96}
{"smiles": "CCNC(=O)C(=O)NCc1ccncc1", "hERG current change (%, negative = inhibition) at 10uM": 7.61}
{"smiles": "O=c1[nH]c(O)c(C=Nc2ccc(F)c(Cl)c2)c(=O)[nH]1", "hERG current change (%, negative = inhibition) at 10uM": 7.3}
{"smiles": "CCN1CCN(C(=O)c2cccc(OC3CCN(S(C)(=O)=O)CC3)c2)[C@@H](C)C1=O", "hERG current change (%, negative = inhibition) at 10uM": 13.7}
{"smiles": "Cc1ccc(NC(=O)CN(C)C(=O)CNC(=O)c2sc3ccccc3c2Cl)cc1", "hERG current change (%, negative = inhibition) at 10uM": -9.59}
{"smiles": "COc1cc(C)ccc1OCC(=O)NC1CCCCCC1", "hERG current change (%, negative = inhibition) at 10uM": -4.92}
{"smiles": "COc1ccc(-c2c(-c3ccc(OCC(=O)NN)cc3O)n[nH]c2C)cc1OC", "hERG current change (%, negative = inhibition) at 10uM": 7.91}
{"smiles": "CCOc1c(Br)cc(CNc2ccc(N3CCN(C(C)=O)CC3)cc2)cc1OC", "hERG current change (%, negative = inhibition) at 10uM": -4.91}
{"smiles": "CCCNC(=O)CCn1nc(-c2ccccc2)c2ccccc2c1=O", "hERG current change (%, negative = inhibition) at 10uM": 4.47}
{"smiles": "COc1cc(OC)cc(C(=O)Nc2cc(C)nn2-c2ccccc2)c1", "hERG current change (%, negative = inhibition) at 10uM": 16.3}
{"smiles": "CCN(CC(=O)Nc1ccc(NC(C)=O)cc1)C(=O)Cc1ccccc1F", "hERG current change (%, negative = inhibition) at 10uM": 14.5}
{"smiles": "N#Cc1cccc(NC(=O)CCC2CCCC2)c1", "hERG current change (%, negative = inhibition) at 10uM": -7.85}
{"smiles": "Cc1ccc(NC(=O)CSCC(=O)N2CCN(c3cccc(C(F)(F)F)c3)CC2)cc1", "hERG current change (%, negative = inhibition) at 10uM": -13}
{"smiles": "COc1ccc(CCNS(=O)(=O)c2c(C)[nH]c(C)c2C(=O)N2CCCCC2)cc1OC", "hERG current change (%, negative = inhibition) at 10uM": 6.91}
{"smiles": "N/C(=N\\OC(=O)c1cccc2ccccc12)c1cccnc1", "hERG current change (%, negative = inhibition) at 10uM": 12.3}
{"smiles": "CCCNC(=O)C(=O)c1cccn1-c1ccsc1C(=O)OC", "hERG current change (%, negative = inhibition) at 10uM": 1.12}
{"smiles": "CCCCS(=O)CC(CS(=O)CCCC)OC(=O)c1ccc(C)cc1", "note": "(centres unmarked)", "hERG current change (%, negative = inhibition) at 10uM": -49.2}
{"smiles": "CC(C)CCN1C(=O)c2ccccc2C1C(=O)NCc1cccnc1", "note": "(centres unmarked)", "hERG current change (%, negative = inhibition) at 10uM": -16.1}
{"smiles": "O=C(NCCCn1ccnc1)c1cccc(S(=O)(=O)Nc2ccc(Br)cc2)c1", "hERG current change (%, negative = inhibition) at 10uM": -7.87}
